Experimental data published in the supplement of paper PMC7826260.
Some of the results follow. One pool of 16,384 single-stranded DNAs met each Rep nickase domain in vitro for 1 h at 37 °C with 3 µM enzyme; only the middle of the 90-letter strands is printed. Uncut reads are compared with the no-enzyme pool on a log2 scale; uncut sequences lie near 0, cut ones below; no hit call is given. Shares of all reads are compared; uncut strands gain when others are lost, and binding without cutting may add a little.

Tests used:
Test in all cases: uncleaved DNA left, log2 of reads against the no-enzyme library (log2 ratio); higher = less cleavage (more negative = more Rep cleavage of the k-mer); sequences stand for … in CTCGTCCG…ACCGGAGA
[1] = tested on: T1, Rep nickase domain of Muscovy duck circovirus
T1 sequence (protein, residues 1-111, tag omitted): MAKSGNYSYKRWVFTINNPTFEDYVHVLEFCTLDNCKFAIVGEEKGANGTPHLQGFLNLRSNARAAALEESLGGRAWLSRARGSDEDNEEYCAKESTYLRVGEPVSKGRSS
Experimental: (§1)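 A pool of 90-nt single-stranded DNAs with seven random bases just before the constant AC of the nick site (name = the seven bases) was cut by 3 µM recombinant His6-SUMO-tagged Rep nickase domain (300 nM DNA, 50 mM HEPES pH 8.0, 50 mM NaCl, 1 mM MnCl2, 1 h, 37 °C, three replicates). Uncut DNA was amplified and sequenced.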

[2] = tested on: T2, Rep nickase domain of banana bunchy top virus
T2 sequence (protein, residues 1-94, tag omitted): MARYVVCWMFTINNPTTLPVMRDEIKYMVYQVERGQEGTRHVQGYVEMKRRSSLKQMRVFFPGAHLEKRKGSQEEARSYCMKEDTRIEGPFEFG
Experimental: as §1

[3] = tested on: T3, Rep nickase domain of cabbage leaf curl virus
T3 sequence (protein, residues 1-116, tag omitted): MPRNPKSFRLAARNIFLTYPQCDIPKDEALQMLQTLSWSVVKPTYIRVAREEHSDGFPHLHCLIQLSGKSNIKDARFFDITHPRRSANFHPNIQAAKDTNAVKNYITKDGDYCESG
Experimental: as §1

[4] = tested on: T4, Rep nickase domain of chickpea chlorotic dwarf virus
T4 sequence (protein, residues 1-124, tag omitted): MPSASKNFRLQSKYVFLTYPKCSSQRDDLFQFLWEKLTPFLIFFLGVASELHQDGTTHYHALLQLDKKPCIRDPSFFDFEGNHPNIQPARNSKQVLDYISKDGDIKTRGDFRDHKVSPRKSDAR
Experimental: as §1

[5] = tested on: T5, Rep nickase domain of faba bean necrotic yellows virus
T5 sequence (protein, residues 1-98, tag omitted): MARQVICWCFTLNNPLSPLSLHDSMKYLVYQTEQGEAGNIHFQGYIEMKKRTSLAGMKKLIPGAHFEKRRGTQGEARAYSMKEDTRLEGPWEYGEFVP
Experimental: as §1

[6] = tested on: T6, Rep nickase domain of maize striate mosaic virus
T6 sequence (protein, residues 1-117, tag omitted): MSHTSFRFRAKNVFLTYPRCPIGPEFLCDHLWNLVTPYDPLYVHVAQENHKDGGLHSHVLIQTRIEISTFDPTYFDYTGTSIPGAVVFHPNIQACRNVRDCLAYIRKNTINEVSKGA
Experimental: as §1

[7] = tested on: T7, Rep nickase domain of porcine circovirus 2
T7 sequence (protein, residues 2-116, tag omitted): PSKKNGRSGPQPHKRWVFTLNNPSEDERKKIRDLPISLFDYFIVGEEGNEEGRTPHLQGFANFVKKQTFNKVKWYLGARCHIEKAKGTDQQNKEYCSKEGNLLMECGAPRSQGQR
Experimental: as §1

[8] = tested on: T8, Rep nickase domain of tomato golden mosaic virus
T8 sequence (protein, residues 1-124, tag omitted): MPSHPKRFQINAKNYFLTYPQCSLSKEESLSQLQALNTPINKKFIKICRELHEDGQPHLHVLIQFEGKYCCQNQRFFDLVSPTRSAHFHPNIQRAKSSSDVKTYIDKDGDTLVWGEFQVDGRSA
Experimental: as §1

[9] = tested on: T9, Rep nickase domain of tomato yellow leaf curl virus
T9 sequence (protein, residues 1-136, tag omitted): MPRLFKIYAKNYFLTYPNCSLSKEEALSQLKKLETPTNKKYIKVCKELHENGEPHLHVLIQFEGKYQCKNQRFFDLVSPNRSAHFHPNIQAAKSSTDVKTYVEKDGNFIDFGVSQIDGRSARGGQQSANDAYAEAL
Experimental: as §1

[10] = tested on: T10, Rep nickase domain of wheat dwarf virus
T10 sequence (protein, residues 1-137, tag omitted): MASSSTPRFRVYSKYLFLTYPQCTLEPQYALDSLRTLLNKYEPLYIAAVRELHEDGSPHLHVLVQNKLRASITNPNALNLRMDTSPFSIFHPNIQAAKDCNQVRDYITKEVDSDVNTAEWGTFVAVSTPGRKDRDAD
Experimental: as §1

Sequence | uncleaved DNA left (log2) [1] | uncleaved DNA left (log2) [2] | uncleaved DNA left (log2) [3] | uncleaved DNA left (log2) [4] | uncleaved DNA left (log2) [5] | uncleaved DNA left (log2) [6] | uncleaved DNA left (log2) [7] | uncleaved DNA left (log2) [8] | uncleaved DNA left (log2) [9] | uncleaved DNA left (log2) [10]
GCTATCG | 0.133 | -0.00654 | -0.675 | -0.251 | 0.0804 | -0.939 | 0.192 | -0.0856 | 0.0296 | -0.0863
CGCTATT | -2.74 | -1.4 | -0.825 | -2.23 | -0.332 | -0.763 | -3.11 | -0.17 | -0.161 | -0.557
CTGCCAG | 0.16 | -0.0192 | -0.696 | -0.272 | 0.0731 | -0.916 | 0.0287 | -0.0232 | 0.0442 | -0.00938
AACCCAT | -0.0392 | 0.0359 | 0.114 | -1.82 | 0.0343 | -0.0246 | -0.378 | -0.0533 | 0.209 | 0.1
CAGATCC | 0.0592 | 0.00326 | 0.0561 | 0.0848 | -0.0903 | 0.0902 | -0.0246 | -0.0872 | 0.000723 | 0.0185
ACTAGAG | 0.0388 | -0.0718 | -0.746 | -0.104 | 0.00188 | -1.04 | 0.106 | 0.0066 | -0.0123 | -0.101
TCTAACA | 0.115 | 0.0667 | -0.279 | -2.26 | 0.142 | -0.314 | -0.0326 | 0.0781 | 0.0751 | 0.0738
ATTAACG | 0.0793 | 0.108 | -0.702 | -0.132 | 0.0948 | -1.11 | 0.274 | 0.084 | -0.0335 | 0.0439
GGTTCTT | -0.361 | 0.0451 | 0.469 | 0.901 | 0.108 | 1.88 | -1.28 | 0.045 | 0.153 | 0.13
CGCCTGC | 0.0108 | -0.0327 | -0.199 | 0.328 | -0.147 | 0.563 | -0.111 | -0.151 | -0.11 | 0.095
CTGTGTG | -0.272 | -0.185 | -0.898 | -0.33 | -0.0742 | -1.07 | 0.064 | -0.232 | -0.0731 | -0.324
ACGACGT | 0.0171 | -0.065 | -0.0819 | 0.164 | -0.00213 | -0.242 | 0.0274 | 0.117 | -0.0709 | 0.0187
ATGCTCC | -0.0795 | -0.159 | -0.017 | 0.111 | -0.128 | 0.286 | -0.0622 | -0.147 | -0.202 | -0.0241
GTTCGAT | 0.131 | 0.141 | 0.339 | 0.963 | 0.069 | 1.66 | 0.138 | 0.0959 | 0.145 | 0.122
ACACGTT | -0.0125 | 0.0702 | -0.904 | -2.32 | 0.105 | -0.805 | -0.0562 | 0.0547 | -0.0459 | -0.359
ACCTAAG | 0.0175 | 0.0149 | -0.641 | 0.382 | 0.0138 | -0.506 | 0.204 | -0.0881 | 0.0276 | -0.0467
TTGGTAT | 0.0178 | 0.0778 | 0.429 | 1.31 | 0.0146 | 1.62 | 0.0384 | 0.0807 | 0.104 | -0.0011
AGGGTTG | -0.0154 | 0.0126 | 0.204 | 0.867 | 0.0825 | 1.02 | 0.122 | 0.106 | -0.0444 | 0.0468
GGCTAAC | -0.0724 | -0.0243 | 0.237 | 0.794 | -0.0194 | 1.53 | 0.117 | -0.121 | -0.0431 | -0.0411
TTTATGC | 0.0242 | 0.035 | -0.512 | -0.587 | 0.0157 | -1.1 | 0.0493 | -0.0717 | 0.0538 | -0.0161
CCCCCCT | -0.26 | -0.283 | -0.314 | -1.71 | -0.241 | -0.717 | -0.518 | -0.168 | -0.189 | -0.298
ATGAGCG | -0.0728 | -0.00529 | -0.834 | -0.366 | -0.0862 | -1.13 | 0.121 | -0.0776 | 0.0704 | -0.0478
AATCGAT | 0.0737 | 0.00043 | 0.233 | 0.848 | -0.0492 | 1.21 | -0.262 | 0.00785 | -0.0768 | 0.0828
TCTTAAT | -2.4 | -0.276 | -0.0381 | -0.969 | 0.0159 | -0.467 | -3.39 | 0.0987 | 0.048 | -0.102
GGGATTG | 0.0422 | -0.00905 | 0.72 | 1.85 | -0.0544 | 2.09 | 0.229 | 0.0152 | -0.0257 | 0.179
CGTAGAG | -0.164 | 0.00204 | -0.623 | -0.479 | -0.113 | -1.05 | 0.122 | -0.0649 | 0.0443 | -0.0654
TCCGGTG | 0.158 | 0.0298 | -0.16 | -0.21 | -0.0153 | -0.304 | 0.306 | -0.0415 | 0.0281 | 0.017
TAATCCG | 0.0419 | -0.00231 | -1.51 | -2.02 | -0.0145 | -1.17 | 0.0973 | -0.078 | -0.0443 | -0.223
GGACTGG | 0.0902 | 0.0527 | 0.556 | 1.44 | -0.0184 | 1.91 | 0.166 | 0.0866 | 0.0376 | 0.156
GTCATTC | 0.131 | 0.104 | 0.404 | 1.09 | 0.119 | 1.42 | 0.208 | 0.0486 | 0.163 | 0.141
